Measured values published in the BET-seq Pho4 binding data (Le et al. 2018).
The list shows a part of the results. These are noisy estimates, calculated here from bound and input reads.

What follows are sequences tested against T1, Pho4 (S. cerevisiae) (UniProt P07270) (assay: relative binding free energy (BET-seq); higher = weaker binding). Details: reference: library average.
T1 sequence: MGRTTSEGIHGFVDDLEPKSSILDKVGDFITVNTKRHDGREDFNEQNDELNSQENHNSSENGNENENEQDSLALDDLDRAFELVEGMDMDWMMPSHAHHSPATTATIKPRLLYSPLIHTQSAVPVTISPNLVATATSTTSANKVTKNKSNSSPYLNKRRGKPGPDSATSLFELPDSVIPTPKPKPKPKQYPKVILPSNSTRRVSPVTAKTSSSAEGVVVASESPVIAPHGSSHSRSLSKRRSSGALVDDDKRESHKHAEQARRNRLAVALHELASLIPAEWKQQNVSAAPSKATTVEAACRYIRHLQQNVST

| Sequence | relative binding free energy |
| --- | --- |
| TGTTACACGTGCTGGA | 0.15 kcal/mol |
| TTGATCACGTGTCGGA | 0.29 kcal/mol |
| GGGGTCACGTGATATA | 0.31 kcal/mol |
| TGACACACGTGTTTTG | 0.05 kcal/mol |
| TGGTCCACGTGTCAGG | 0.12 kcal/mol |
| GATATCACGTGCAGGT | 0.08 kcal/mol |
| CGTGACACGTGTGGCT | 0.14 kcal/mol |
| GGTTGCACGTGCGTGC | -0.07 kcal/mol |
| TGGGCCACGTGGTTTA | -0.1 kcal/mol |
| GGGGACACGTGGTTTA | -0.05 kcal/mol |
| CTCGGCACGTGAAGGG | 0.17 kcal/mol |
| AGATGCACGTGGTATA | -0.12 kcal/mol |
| TGGCGCACGTGAAAGG | 0.1 kcal/mol |
| AAGTGCACGTGTAAAG | 0.09 kcal/mol |
| ACTCTCACGTGTGGGT | 0.25 kcal/mol |
| CTTGGCACGTGCGTTA | -0.23 kcal/mol |
| CTTGGCACGTGTATAA | -0.04 kcal/mol |
| CGGTTCACGTGTGCGG | 0.23 kcal/mol |
| TCAGGCACGTGTTGGC | -0.09 kcal/mol |
| GTGGTCACGTGACAGG | 0.18 kcal/mol |
| AGGATCACGTGTTTTT | 0.14 kcal/mol |
| CGTTACACGTGTGTGG | 0.02 kcal/mol |
| GTAATCACGTGTTGGC | 0.19 kcal/mol |

| Sequence | relative binding free energy |
| --- | --- |
| TATATCACGTGTTAAA | 0.08 kcal/mol |
| GGAATCACGTGGTGCT | 0.04 kcal/mol |
| GACGCCACGTGGGGGT | -0.28 kcal/mol |
| ATTTTCACGTGTGTAA | 0.24 kcal/mol |
| TGAGGCACGTGTAACT | 0.07 kcal/mol |
| TGAGTCACGTGTGGGT | 0.23 kcal/mol |
| TTCGGCACGTGCGATT | 0.03 kcal/mol |
| TTTGTCACGTGCGAGG | 0.14 kcal/mol |
| TATTGCACGTGTCATT | -0.15 kcal/mol |
| TTAAGCACGTGGTTCA | -0.15 kcal/mol |
| GTATGCACGTGTAATG | 0.13 kcal/mol |
| GGCGGCACGTGTGTCG | -0.06 kcal/mol |
| CATGTCACGTGCGGTT | 0.06 kcal/mol |
| TCTAGCACGTGAGGGT | 0.01 kcal/mol |
| ATTTCCACGTGTGCGT | 0.16 kcal/mol |
| TGGTACACGTGTAAAG | 0.31 kcal/mol |
| GTGATCACGTGCTAGT | 0.01 kcal/mol |
| CATGGCACGTGTGAAT | 0 kcal/mol |
| ACCTTCACGTGTGGGT | 0.21 kcal/mol |
| GTAGGCACGTGGGCGA | -0.25 kcal/mol |
| CATGGCACGTGTTCGG | -0.07 kcal/mol |
| TATAGCACGTGTTTGG | -0.18 kcal/mol |
| ATTTCCACGTGGGGGG | -0.11 kcal/mol |

| Sequence | relative binding free energy |
| --- | --- |
| CGGTCCACGTGGTGTT | -0.01 kcal/mol |
| AGTCTCACGTGTGTAT | 0.16 kcal/mol |
| AGGGGCACGTGTTGAA | -0.09 kcal/mol |
| TGGGTCACGTGCGGCC | 0.1 kcal/mol |
| GGGTACACGTGGGAAT | 0.13 kcal/mol |
| ATAGTCACGTGGTTAA | 0.01 kcal/mol |
| ATTTCCACGTGTGAGG | 0.07 kcal/mol |
| GAGTTCACGTGTGTTA | 0.29 kcal/mol |
| TAAGACACGTGGGCTG | -0.16 kcal/mol |
| ATGGGCACGTGAGGTA | 0.08 kcal/mol |
| TGGTACACGTGCGGCT | 0.01 kcal/mol |
| TGAGTCACGTGAGCTG | 0.27 kcal/mol |
| GGGTGCACGTGAATAT | 0.38 kcal/mol |
| AGTGCCACGTGGTTTT | -0.2 kcal/mol |
| TGCTGCACGTGTGTAG | 0.02 kcal/mol |
| AAATGCACGTGGGCAT | -0.02 kcal/mol |
| ATGGACACGTGGGTGA | -0.16 kcal/mol |
| TATACCACGTGTGTGG | -0.06 kcal/mol |
| TTGAGCACGTGCGGGC | -0.09 kcal/mol |
| ATTTGCACGTGAGTAG | 0.16 kcal/mol |
| TGTATCACGTGATTCG | 0.19 kcal/mol |
| ATAAGCACGTGGTGAT | -0.21 kcal/mol |
| TTATGCACGTGGGGTT | -0.17 kcal/mol |

| Sequence | relative binding free energy |
| --- | --- |
| TGCTGCACGTGATGTT | 0.1 kcal/mol |
| TGTCACACGTGTTAAG | 0.06 kcal/mol |
| CAGTGCACGTGGGGAA | -0.24 kcal/mol |
| GAGATCACGTGGTATT | 0.14 kcal/mol |
| CGAGACACGTGGGGTG | -0.15 kcal/mol |
| TTTTCCACGTGGTTTT | 0.06 kcal/mol |
| AATGGCACGTGGATAG | -0.12 kcal/mol |
| CGTATCACGTGTTGTA | 0.14 kcal/mol |
| ATCGGCACGTGGTGAT | -0.23 kcal/mol |
| GTGTACACGTGAGGTT | 0.24 kcal/mol |
| AGGCGCACGTGAGGAG | 0.13 kcal/mol |
| GAGATCACGTGGGAGT | 0.16 kcal/mol |
| TCATACACGTGTTTTG | 0.1 kcal/mol |
| CTTTGCACGTGTGTGT | 0.11 kcal/mol |
| AGCGGCACGTGTTGCG | -0.15 kcal/mol |
| AATTTCACGTGGTATA | 0.28 kcal/mol |
| CTTCACACGTGGGGGT | -0.02 kcal/mol |
| TTGCACACGTGGGGCA | -0.01 kcal/mol |
| TTATTCACGTGTAGAG | 0.27 kcal/mol |
| GGGGGCACGTGTAGGG | -0.15 kcal/mol |
| TGTTTCACGTGGACGC | 0.34 kcal/mol |
| ATGTGCACGTGTTCTT | -0.01 kcal/mol |
| CATGGCACGTGGTAAG | -0.09 kcal/mol |

| Sequence | relative binding free energy |
| --- | --- |
| ATTGACACGTGAGCGT | 0.02 kcal/mol |
| AATGTCACGTGAGGAG | 0.21 kcal/mol |
| GAAAACACGTGTTGTT | 0.03 kcal/mol |
| TTTGGCACGTGTAGGT | 0.06 kcal/mol |
| AGAGTCACGTGTGTCT | 0.08 kcal/mol |
| TATATCACGTGCGATT | 0.14 kcal/mol |
| GTAGGCACGTGTGTCT | -0.09 kcal/mol |
| GACGCCACGTGTGGGG | -0.05 kcal/mol |
| TGTATCACGTGGATAT | 0.09 kcal/mol |
| TGGGTCACGTGACTAG | 0.24 kcal/mol |
| GCAGGCACGTGGTTAT | -0.16 kcal/mol |
| GTTTTCACGTGGAAGT | 0.28 kcal/mol |
| TTAATCACGTGACGGG | 0.25 kcal/mol |
| GTCGGCACGTGGGGGC | -0.25 kcal/mol |
| GTTCGCACGTGTTAAG | 0.1 kcal/mol |
| GGTCGCACGTGGAGGT | 0.01 kcal/mol |
| ATTATCACGTGGATTT | 0.17 kcal/mol |
| AGAAGCACGTGTGATT | 0.15 kcal/mol |
| ACGTACACGTGGTTTG | 0.05 kcal/mol |
| CGCTGCACGTGGCTGG | -0.04 kcal/mol |
| AAGTGCACGTGCTGGC | -0.07 kcal/mol |
| GCTGGCACGTGAGTTG | 0.2 kcal/mol |
| TGGGTCACGTGAATCT | 0.37 kcal/mol |
